± gives the standard deviation of the averaged measurements. The list shows a part of the results.
system: PfAP2-G AP2 domain (GST-tagged); test: gcPBM binding intensity (ln(normalized median fluorescence intensity)); higher = stronger DNA binding
Summary of the method: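 The highest Masliner-normalised natural-log median intensity across replicate spots of either probe orientation is reported as binding intensity. GST-tagged P. falciparum DNA-binding domains expressed in E. coli were applied for 1 h to an Agilent 4 × 180k array of primer-extended double-stranded 36-bp intergenic genomic probes plus negative controls, and bound protein was detected with Alexa488 anti-GST antibody and scanned at 488 nm.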

Sequence | gcPBM binding intensity (ln)
AACGTAAAACATATCTATCAAAATAAATCATTAATC [TGCATGCA_negctrl_site68] | 9.59 ± 0.33
AATATAATAATATTTTGTACATATCCTATGTATGAG [XGTACX_site8601] | 10.7 ± 0.23
ATTAAAATATAAGTCACACATATATATATATATATA [CACACA_site6145] | 10 ± 0.38
TATTTTTTTTTATTTTTTTTTATTTTGTTTTTTTAT [TGCATGCA_negctrl_site315] | 9.44 ± 0.071
ATATATTTTCCTTCAAGTACACATATAAATGTGTAT [XGTACX_site6633] | 11.4 ± 0.83
AAAAAAATAATCATCACACACGGAGAATGTCCAATA [CACACA_site5305] | 10.28 ± 0.078
ACATATATTTTTTTTTGTACATATAAATATATATAT [XGTACX_site6491] | 11.1 ± 0.48
TTTTTTTTTAAATGTTGTACATTATATTTGTGTATA [XGTACX_site8354] | 11.1 ± 0.73
GTATATTAATAAACATGTACACAATTTATTTATATT [XGTACX_site1012] | 11.5 ± 0.98
TTTTTTTTTTGAAGTGCATGTTACGATGAAAAAAAA [TGCATGCA_site64] | 10.4 ± 0.41
CTAAATAACTTAAGGTGTACGTTTCCAATAAAAAAA [XGTACX_site1742] | 11.4 ± 0.9
ACATATAAAATGATGCGTACATATTTGATCATATAC [XGTACX_site153] | 11.4 ± 0.94
TGTAGCCTGGAGAAGAGTACATAGTATCTGGTAGCT [XGTACX_site4943] | 11.2 ± 0.79
CGTATGTGCGGACATGCATGCAATATACAAGAAAAA [TGCATGCA_site145] | 11.2 ± 0.98
GAAAATATTTCCGTATGTACTTATTTTAGTCTACTA [XGTACX_site471] | 11.4 ± 1.1
AAAAAAAAAAAAAAATGTACAAATAAAGAAATATGA [XGTACX_site4371] | 10.9 ± 0.64
ATATATTAATAATTTTGTACGCATTTCCTTTTTATT [XGTACX_site1638] | 11.5 ± 1
TGACCTGTTCAGGTAACACACATATAAACACATACA [CACACA_site4186] | 10.2 ± 0.2
AATATTTTCTTGTACGCATGCACATCCAAATTATAT [TGCATGCA_site873] | 11.6 ± 0.83
TCTTAAAAGGGGAATGGAATGGAGAAAATGAAATAA [GTGCAC_negctrl_site30] | 9.84 ± 0.11
AGGTTCTTTTTAAATGGTACACATAATTTGAAGATA [XGTACX_site400] | 11.3 ± 0.83
GTGTATAGAATGGTTTCTTTTAAGGTTTTTATTTTT [CACACA_negctrl_site564] | 10.4 ± 0.26

Sequence | gcPBM binding intensity (ln)
ATACCCACTTAAAATACACACACACCGAAAAAAAAA [CACACA_site8867] | 10.3 ± 0.38
ATGAATACAAAATTATACAAAATTATCAAAAGTATG [CACACA_negctrl_site1453] | 9.88 ± 0.057
AAAATATATTTAAATTGTACACGTTACCATAACAAT [XGTACX_site2598] | 11.4 ± 0.89
TGCAGTCTGGAGAAACGTACATAGTATCTGGTAGCT [XGTACX_site4937] | 11.2 ± 0.78
ATACATAAATATATATGTACATATATATATATATAT [XGTACX_site1055] | 11.3 ± 0.78
CTTTTTATTTAGAACACACACAAAAAAAAAAAAAAA [CACACA_site1761] | 10.1 ± 0.51
TTTGTTATTTTTTATTGTACTTTTTTTCTTTCATAA [XGTACX_site4302] | 11.5 ± 0.73
ATTAAATGTTATATTTGTACATATTATATATATATA [XGTACX_site5095] | 10.9 ± 0.58
TCCATATTTGTTCACACACACACATATTTATATATA [CACACA_site3570] | 10.2 ± 0.15
ATACATAAATTTAGAAGTACATAACAAATTTTTAAA [XGTACX_site7448] | 11.4 ± 0.88
AATCAAAACAACAATAGTACATAAAAAAACAAAACA [XGTACX_site4181] | 11.2 ± 0.8
TTTTTTAAATGTATTAAAATTATATATATATATATA [GTGCAC_negctrl_site570] | 9.96 ± 0.61
TTACACATGAGAAAATGTACATATAATAAAATATGT [XGTACX_site904] | 11.1 ± 0.55
TTATATTTCAATCATATTGTCACAAGTCATATTTAT [GTGCAC_negctrl_site366] | 9.89 ± 0.14
AACAAAAAAAAAAAAAAAAAAAAAAAAAAAAAAATG [CACACA_negctrl_site1127] | 10 ± 0.33
ATGGACAAGTTAAACGCACACAAATATATACACCCA [CACACA_site8478] | 10.6 ± 0.39
AATAAAAAAAATAGCATACACACATATATACATATA [CACACA_site659] | 9.75 ± 0.028
TATAATAATAATTATACATGCATGAATATTTATATG [TGCATGCA_site811] | 9.82 ± 0.099
TCCTATATATAAATATTAATATATATGTATTGGTAT [GTGCAC_negctrl_site23] | 9.645 ± 0.049
AAAAAAAAAAAAAACACACACACAAATACAAATGGT [CACACA_site1721] | 10.29 ± 0.042
TTTCTTATTTTGGATTGTACGTATATTTTTCATTTT [XGTACX_site224] | 11.4 ± 0.78
TTTCCAAATACAACTACACACAAACAAAAGTTATAT [CACACA_site6544] | 10 ± 0.11

Sequence | gcPBM binding intensity (ln)
AAATTTAACAACTTCAAACACACAATATATATATAT [CACACA_site2092] | 10 ± 0.37
TATATATATATGTGCGTGCACGTTACCTTGCTGTTT | 10.5 ± 0.32
TTTTGAAGCTTTAAAACATATATATATATATATATA [CACACA_negctrl_site184] | 10.1 ± 0.9
AGCAAAACAAAAAAATTAAAATTAACATATAATCAT [GTGCAC_negctrl_site393] | 9.45 ± 0.28
AATAAGAGGATACATTGTACATAAAAAAAAAAAATA [XGTACX_site1815] | 11 ± 0.69
AACACATAATAAAATTGTACCCAACATTTCTTTTGA [XGTACX_site8061] | 11.1 ± 0.57
TATGTGAATAAATAAGCACACATAAACACATATATA [CACACA_site9359] | 9.995 ± 0.035
ATGTTCTTATTATTGGTGCAAGAATACACAAGAAAA | 10.4 ± 0.45
TATTGTTCTTATTTAGTGCATATATAATATAATATA [GTGCAC_site9827] | 10.3 ± 0.33
ATAAAAATTTAAAAAGAACACACGAAAGAAGGACTT [CACACA_site3929] | 10.5 ± 0.28
AACAAATACAGACACACACACACACCCAAAAAAAAA [CACACA_site515] | 10.4 ± 0.42
ATACAACAAAAATAAGCACACACAAATATACATACA [CACACA_site9201] | 10.07 ± 0.085
TATATAAACACGTACACACACATATCTGTATTTATA [CACACA_site5858] | 11.6 ± 0.93
AATACCTACCAAACATGTACATACGCTTCTCAAATA [XGTACX_site5535] | 11.2 ± 0.66
GTGAGCTCAGACTACACACACAAAGAAAAAAATAAA [CACACA_site1553] | 10.3 ± 0.42
ATATTTTTAGGTGATTATTATTCGGAGAAGCGAATT [CACACA_negctrl_site1097] | 9.73 ± 0.014
AAAAAAAAAAAAAAAAAAAAAAAAAAAAAATATGTG [GTGCAC_negctrl_site657] | 11.3 ± 0.61
GAAATATAATTTATTACACACATTTTAAAAAAATTC [CACACA_site1087] | 9.99 ± 0.3
TTCAACGTTTTGGAATGTACAGAAAGGTATCCATCA [XGTACX_site179] | 10.9 ± 0.59
TTTATAACATTTAAGAGTACAAAAAAATAAATAAAT [XGTACX_site1264] | 11.3 ± 0.79
TAAAAGATAAAATATGCATGTGTAATTTTTTTTTTT [TGCATGCA_site955] | 9.7 ± 0.071
TATTATTTACTTATTGCACACATATAAAATATATTT [CACACA_site9017] | 10.16 ± 0.042

Sequence | gcPBM binding intensity (ln)
ATGAACTAAACTAATCGTACAATAAGTTTTATTATA [XGTACX_site4891] | 11.1 ± 0.51
AAAAAAATATATAAATGTACATATTGTTTAATTAAT [XGTACX_site3794] | 11 ± 0.59
TCACACACTCTCAAAAGTACAAGAAGATTATGAAGA [XGTACX_site4748] | 11.1 ± 0.8
ATCTATCATATTTATGCACACAAAAATAATTAATTC [CACACA_site8837] | 10.3 ± 0.26
TTGATTAAAATTAGTACACACAAAATACATGCGGGG [CACACA_site5284] | 11.6 ± 0.94
TTAAATATAATTATATGTACATATTTATGTATATAT [XGTACX_site5811] | 11.2 ± 0.73
AGATTGTATTTATGTACACACATTTTTGGAATATGA [CACACA_site1340] | 11.4 ± 0.73
TTAATTATCCATTTTGCACACATTTTAAAACATGAA [CACACA_site189] | 10.2 ± 0.092
AATTTACAAAAAAGAAAAAAAAAAAAAAAGATACTT [CACACA_negctrl_site1434] | 9.65 ± 0.071
ATATGCACTCATTGTGCACACGCATATTACGAAAAG [CACACA_site2637] | 10.7 ± 0.39
ATATTATAATGTTTTTACGAATTCGCAAATTATTAT [GTGCAC_negctrl_site470] | 9.835 ± 0.064
TTTTTTTTTTTTTTTTTTTTTTTTTTATGATATATA [GTGCAC_negctrl_site365] | 9.63 ± 0.44
TATATATTAAAATAATCACACACATCAATTAATGGT [CACACA_site8331] | 9.945 ± 0.049
TAATTTATTACCATGTAATTATTACGAATATAGGAT [CACACA_negctrl_site694] | 10.1 ± 0.28
AAAAAATTATTAATTTGTACATAAATAACCAAAAAA [XGTACX_site2488] | 10.7 ± 0.36
ATATATTTTTTAAATTTAAAAATTATAAAATTTATA [TGCATGCA_negctrl_site36] | 9.7 ± 0.099
TAAATAAAAAAAAAAAGTACATACATACAAACATAT [XGTACX_site4427] | 11.4 ± 0.88
ATATATGTGCGCGTATGTACATAAAATAAATATACA [XGTACX_site2689] | 11.5 ± 0.84
TCTCATAGGAAACACACACACACACCCACATATATA [CACACA_site1738] | 10.4 ± 0.36
ATATATTTTTAATTACGTACTTAATAATATATACAA [XGTACX_site3285] | 11.3 ± 0.85
TAAAAGAAAAATTAGTGTACCAATATTAACATAAAA [XGTACX_site5474] | 11.1 ± 0.64
TGGGTCTCTAACTGGTGTACTATTTACATATTATAC [XGTACX_site8593] | 11.5 ± 0.93
